In PMC12136788:
This is one part of the list.

T1: UNK ZnF1-6 (called full-length) (human, UniProt Q9C0B0 30-357)
T1 sequence: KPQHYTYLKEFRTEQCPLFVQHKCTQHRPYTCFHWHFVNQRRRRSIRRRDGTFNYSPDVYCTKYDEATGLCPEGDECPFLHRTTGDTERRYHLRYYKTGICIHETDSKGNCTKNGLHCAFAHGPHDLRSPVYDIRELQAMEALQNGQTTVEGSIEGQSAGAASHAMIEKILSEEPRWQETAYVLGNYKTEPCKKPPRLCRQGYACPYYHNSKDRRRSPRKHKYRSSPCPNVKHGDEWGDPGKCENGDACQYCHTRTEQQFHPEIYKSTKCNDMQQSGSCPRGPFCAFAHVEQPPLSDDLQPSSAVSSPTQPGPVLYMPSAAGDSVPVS

B1: chr4:110049619:110049852:-|3pUTR|ENSG00000170522|msi1|FALSE|unique (ssRNA)
RNA: GGGAGUUCUACAGUCCGACGAUCUUGUUCAAUGUGACAUAAUAGUAUUAUAAUUGGUUAAGUAGCUUAAUGAUUAGGCAAACUAGAUGAAAAGAUUAGGGGCUUCCACACUGCAUAGAUUACACGCACAUAGCCACGCAUACACAACAGAGGAUUGAGCAUCA
B2: ENSG00000075624:stop:overlap|stop_codon|ENSG00000075624|stop_codon|NA|stop_codon (ssRNA)
RNA: GGGAGUUCUACAGUCCGACGAUCGGAUCAGCAAGCAGGAGUAUGACGAGUCCGGCCCCUCCAUCGUCCACCGCAAAUGCUUCUAGGCGGACUAUGACUUAGAUUUAAAAACUGGAACGGUGAAGGUGACAGCAGUCGGUUGGACAACAGAGGAUUGAGCAUCA
B3: chr2:236324146:236324783:-|three_prime_utr|ENSG00000132321|control|control|control (ssRNA)
RNA: GGGAGUUCUACAGUCCGACGAUCACUCGCCAAAGAAAAGAUUCACCAUUGCCCGCCUGAAGAAGCCCUCAGGGGAAGGAACUUAGCAGUGUGCAGGUGAGCUGAUGCCGCAAACCCGCUAACCACUGCAUGUGCUGUUAUGCCCAACAGAGGAUUGAGCAUCA
B4: chr11:35619468:35619569:+|CDS|ENSG00000179431|unk|total|mutant (ssRNA)
RNA: GGGAGUUCUACAGUCCGACGAUCCCCCCUCCGGGAUGCCGGGGGUGAGCUGGCCAACCUCAGCCAGGCGGAGCUGGUGGACCCCGUACAAUGGACCGACUUAAUCCUUUUCGACUACCUGACGGCCAACUUCGACCGGCUCGUCAACAGAGGAUUGAGCAUCA
B5: chr5:136063637:136063821:+|3pUTR|ENSG00000120708|msi1|FALSE|unique (ssRNA)
RNA: GGGAGUUCUACAGUCCGACGAUCUGUCAAAUGUGUCUCACAUCUACACGUGGCUUGGAGGCUUUUAUGGGGCCCUGUCCAGGUAGAAAAGAAAUGGUAUGUAGAGCUUAGAUUUCCCUAUUGUGACAGAGCCAUGGUGUGUUUCAACAGAGGAUUGAGCAUCA
B6: chr1:965281:965395:+|3pUTR|ENSG00000187961|unk|FALSE|unique (ssRNA)
RNA: GGGAGUUCUACAGUCCGACGAUCCCAUCCGUUCACGUCUCUGCAUCCAUUCCUUCAUGUCUUUAUUUAGUUGUUUAUUUAUUUAGUUAUUUAUCUUAUUUAUUGAGGGGUGAGGAGUGCCACGGCUGCCCGUUUACACCUUUACAACAGAGGAUUGAGCAUCA
B7: chr10:52765379:52768136:-|three_prime_utr|ENSG00000165471|control|control|control (ssRNA)
RNA: GGGAGUUCUACAGUCCGACGAUCUUGUUCCUUUUGUGGGCAAUCACUAAAAAUGAUCACUAACAGCACCAACAAAGCAAUAAUAGUAGUAGUAGUAGUUAGCAGCAGCAGUAGUAGUCAUGCUAAUUAUAUAAUAUUUUUAAUCAACAGAGGAUUGAGCAUCA
B8: chr10:98383567:98383797:-|three_prime_utr|ENSG00000119943|control|control|control (ssRNA)
RNA: GGGAGUUCUACAGUCCGACGAUCCCACCCCUGAAUUCCAAGUGCUCCAUUGGAUCAGCUUCCCAGGAAGUUCAGCUUCGGGUUAGUACAUAAGGCCACCACAAUGCUCAAGAAAUUAUUUUAGAAAAAACGUACGAGUUACAUCAACAGAGGAUUGAGCAUCA
B9: ENSG00000124766:be:win_251|CDS|ENSG00000124766|bound_else_gene|NA|bound_elsewhere_windowed (ssRNA)
RNA: GGGAGUUCUACAGUCCGACGAUCUGCACAACGCCGAGAUCUCCAAGCGGCUGGGCAAACGCUGGAAGCUGCUCAAAGACAGCGACAAGAUCCCUUUCAUUCGAGAGGCGGAGCGGCUGCGCCUCAAGCACAUGGCUGACUACCCAACAGAGGAUUGAGCAUCA
B10: chr10:73916565:73916770:+|3pUTR|ENSG00000122861|msi1|total|mutant (ssRNA)
RNA: GGGAGUUCUACAGUCCGACGAUCCUGGUUGUCAUUUUUGCAGCCGAGUCAUCUCCAUCAGCUGUAAGAAGAGACUGGGAAGACCGGCUCUGCACAGAUGGAUUUGCCUGUGCCACCCACCAGGGCGAACGACAACCGCUUUACCAACAGAGGAUUGAGCAUCA
B11: chr4:75800632:75800752:+|CDS|ENSG00000138768|unk|FALSE|unique (ssRNA)
RNA: GGGAGUUCUACAGUCCGACGAUCAAACAACUGAUUGAGAAGAGGAUUGGCAAAGAGAAUUUCAUAGAGAAACUAGGAUUUAUUAGCAAACAUGAGUUGUAUUCCAGAGCAUCUCAGAAACCCCAGCCAAACUUUCCCAGUCCACAACAGAGGAUUGAGCAUCA
B12: ENSG00000061794:stop:overlap|stop_codon|ENSG00000061794|stop_codon|NA|stop_codon (ssRNA)
RNA: GGGAGUUCUACAGUCCGACGAUCUCUCCACUGCCGUCUACUCGGCCACUCCGGUCCCGACACCUAGCCUGCGCACUACCUCCUAGGACAGAGAAAAUGGCUGUUGACCAGGACUGGCCUAGUGUUUACCCAGUUGCAGCACCACAACAGAGGAUUGAGCAUCA
B13: chr20:4853394:4853498:-|3pUTR|ENSG00000089057|unk|FALSE|unique (ssRNA)
RNA: GGGAGUUCUACAGUCCGACGAUCUAUGACCAUGAGCUAAGUUGUUAUUUCUUUCAUUCAUAUCCCUGCUGAAAUAUUGGUACUAGCAACUUAAAGUUGGCAAGUCUCAUCUUCAGUAAUACGGAUGCCAUGGGAGUGGCCAGGCAACAGAGGAUUGAGCAUCA
B14: chr20:50584425:50584526:+|3pUTR|ENSG00000196396|msi1|FALSE|unique (ssRNA)
RNA: GGGAGUUCUACAGUCCGACGAUCACCUCCUAUCCUUGGAGAGCAGCUGGCUCUCCACCUUGUUACACAUUAUGUUAGAGAGGUAGCGAGCUGCUCUGCUAUAUGCCUUAAGCCAAUAUUUACUCAUCAGGUCAUUAUUUUUUACAACAGAGGAUUGAGCAUCA

Molecular target: T1, UNK ZnF1-6 (called full-length)
Assay: nsRBNS (natural sequence RNA bind-n-seq); RBNS binding buffer (assumed for nsRBNS): 25 mM Tris pH 7.5, 150 mM KCl, 3 mM MgCl2, 0.01% Triton X-100, 500 ug/ml BSA, 20 U/ml SUPERase-In, 4 C; UNK is unkempt and MSI1 is Musashi-1; names of the RNAs are library labels; protein concentration not given here; high values mean tight binding

| Binder | binding signal [enrichment R] |
| --- | --- |
| B1 | 14.6 |
| B2 | 1.25 |
| B3 | 0.482 |
| B4 | 0.542 |
| B5 | 0.987 |
| B6 | 199 |
| B7 | 16.5 |
| B8 | 2.25 |
| B9 | 0.596 |
| B10 | 0.561 |
| B11 | 8.68 |
| B12 | 0.83 |
| B13 | 0.439 |
| B14 | 0.916 |
